Laboratory results from the supplement of paper PMC9446081.
Out of some 39,000 compounds screened, about 220 (0.56%) showed activity. This is one part of the list.

system: Escherichia coli K-12 BW25113; experiment: relative growth (OD600 normalised to plate interquartile mean) (fraction); higher = less growth inhibition, active = 0.2 or less; conditions: 50 µM; LB; incubation time: overnight (16-24 h)
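Also: static incubation at 37 °C against the wild-type strain, values averaged over two biological replicates.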

| Compound | relative growth |
| --- | --- |
| COc1ccc(CN(C)C[C@H]2Oc3ccc(NC(=O)C4CC4)cc3CC(=O)N([C@H](C)CO)C[C@@H]2C)cc1 | inactive: 0.987 |
| C[C@@H]1CN([C@@H](C)CO)C(=O)c2cc(NC(=O)CCC(F)(F)F)ccc2O[C@@H](C)CCCCO[C@H]1CN(C)C(=O)c1ccccc1 | inactive: 0.999 |
| C[C@H](O)C#Cc1ccc2c(c1)O[C@H](CN(C)C)[C@H](C)CN([C@H](C)CO)S2(=O)=O | inactive: 1 |
| Cn1c(=O)n2n(c1=O)[C@H](C1CC1)C=C1CN3[C@@H]([C@H](CCn4cc(CCC(=O)NO)nn4)OC(=O)[C@@H]3Cc3ccccc3)[C@@H]12 | inactive: 0.955 |
| C[C@H]1CN([C@@H](C)CO)C(=O)Cc2cc(NC(=O)CCCCCC(=O)Nc3ccccc3N)ccc2O[C@H]1CN(C)CC1CCCCC1 | inactive: 1.02 |
| COc1ccc(NC(=O)Nc2cccc3c2O[C@@H](CN(C)Cc2ccc(C(F)(F)F)cc2)[C@H](C)CN([C@@H](C)CO)C3=O)cc1 | inactive: 0.773 |
| CCN(CC)C(=S)SSC(=S)N(CC)CC | inactive: 0.412 |
| C[C@@H]1CN([C@@H](C)CO)C(=O)c2cccc(NS(=O)(=O)c3ccc(Cl)cc3)c2O[C@H]1CN(C)Cc1ccc(C(=O)Nc2ccccc2N)cc1 | inactive: 1.03 |
| COc1ccccc1C#Cc1ccc2c(c1)O[C@@H](CN(C)Cc1ccncc1)[C@H](C)CN([C@@H](C)CO)S2(=O)=O | inactive: 1.02 |
| COc1ccc(COCC23Oc4ccccc4[C@H]([C@H]2CO)n2c(c4c(c(C(C)=O)c2=O)C(=O)N(C)C4=O)N3C)cc1 | inactive: 1 |
| CN1C(=O)c2cc(NC(=O)C3CCOCC3)ccc2OC[C@H]2O[C@H](CC(=O)NCc3ccccc3F)CC[C@H]21 | inactive: 0.984 |
| CC(=O)OC1CC2C(C)(C)C(O)CCC2(C)C2CCC3(C)C(c4ccoc4)OC(=O)C4OC43C12C (configuration not stated) | inactive: 0.998 |
| C[C@@H]1CCCCO[C@@H](CN(C)C(=O)NC2CCCCC2)[C@@H](C)CN([C@H](C)CO)C(=O)c2cc(NS(=O)(=O)c3cccs3)ccc2O1 | inactive: 1.01 |
| Cc1ccc(S(=O)(=O)N(C)C[C@H]2Oc3ccc(NS(C)(=O)=O)cc3CC(=O)N([C@@H](C)CO)C[C@@H]2C)cc1 | inactive: 1.01 |
| C[C@@H]1CCCCO[C@@H](CN(C)C(=O)Nc2ccc(F)cc2)[C@@H](C)CN([C@H](C)CO)C(=O)c2cc(NC(=O)c3ccncc3)ccc2O1 | inactive: 0.993 |
| COc1ccc(O)cn1 | inactive: 1.02 |
| C[C@H](CO)N1C[C@H](C)[C@@H](CN(C)C(=O)NC2CCCCC2)OCc2ccccc2-c2c(n(C)c3ccccc23)C1=O | inactive: 0.981 |
| C[C@H]1CN([C@@H](C)CO)C(=O)CCCn2nncc2CO[C@H]1CN(C)C(=O)Nc1ccc(C(F)(F)F)cc1 | inactive: 0.951 |
| CC(C)CC#Cc1ccc2c(c1)O[C@@H](CN(C)Cc1cncnc1)[C@@H](C)CN([C@H](C)CO)S2(=O)=O | inactive: 1.01 |
| COc1ccc(NC(=O)Nc2cccc3c2O[C@H](CN(C)S(C)(=O)=O)[C@@H](C)CN([C@H](C)CO)C3=O)cc1 | inactive: 1.01 |
| Cc1noc(C)c1NC(=O)N(C)C[C@@H]1OCCCC[C@H](C)Oc2ccc(NC(=O)Nc3ccc(F)cc3)cc2C(=O)N([C@@H](C)CO)C[C@H]1C | inactive: 1 |

| Compound | relative growth |
| --- | --- |
| C[C@@H]1CN([C@@H](C)CO)C(=O)Cc2cc(NS(=O)(=O)c3cn(C)cn3)ccc2O[C@H]1CN(C)C | inactive: 0.997 |
| CCn1c(=O)c(-c2cc(NC(=O)Nc3ccccc3)c(F)cc2Br)cc2cnc(NC)cc21 | inactive: 1.01 |
| C[C@@H]1CN([C@@H](C)CO)C(=O)c2cc(Br)cnc2O[C@H]1CN(C)S(=O)(=O)c1ccccc1 | inactive: 0.987 |
| COCCN1CCC(C(=O)NO)(S(=O)(=O)c2ccc(Oc3ccc(OC(F)(F)F)cc3)cc2)CC1 | inactive: 0.705 |
| COc1ccc(NC(=O)N(C)C[C@H]2OCCCC[C@H](C)Oc3ccc(NC(=O)Nc4ccccc4)cc3C(=O)N([C@H](C)CO)C[C@@H]2C)cc1 | inactive: 1.03 |
| COc1cc2c(cc1OC)CN(C(=O)[C@H]1[C@@H]3C(=O)O[C@@H](c4ccccc4)[C@@H](c4ccccc4)N3[C@@H](c3ccc(OCCO)cc3)[C@]13C(=O)Nc1ccc(C#CCCO)cc13)CC2 | inactive: 1.06 |
| Cc1ccc(CN)cc1Cl | inactive: 0.98 |
| O=c1[nH]c(=O)c2cc(Br)ccc2[nH]1 | inactive: 1.02 |
| C[C@@H]1CN([C@@H](C)CO)S(=O)(=O)c2ccc(C3=CCCC3)cc2O[C@@H]1CN(C)C(=O)Cc1ccncc1 | inactive: 1.02 |
| CNC[C@@H]1Oc2ccc(NS(=O)(=O)c3cn(C)cn3)cc2C(=O)N([C@H](C)CO)C[C@@H]1C | inactive: 0.99 |
| Cc1ccc(S(=O)(=O)N(C)C[C@H]2Oc3ccc(NS(C)(=O)=O)cc3CC(=O)N([C@H](C)CO)C[C@@H]2C)cc1 | inactive: 0.988 |
| O=C(C[C@H]1CC[C@@H]2[C@H](COC[C@@H](O)CN2S(=O)(=O)c2ccccc2Cl)O1)NCc1ccccc1Cl | inactive: 0.993 |
| C=CCOC(=O)[C@H]1[C@@H]2C(=O)O[C@@H](c3ccccc3)[C@@H](c3ccccc3)N2[C@@H](c2ccc(OCCOC(=O)[C@@H]3C[C@@H]4C(=O)N[C@@H](CCCCNC(C)=O)C(=O)N4[C@@H]3c3cccc(OCCO)c3)cc2)[C@]12C(=O)Nc1ccc(I)cc12 | inactive: 1 |
| C[C@@H]1CN([C@@H](C)CO)C(=O)Cc2cc(NS(=O)(=O)c3ccc(F)cc3)ccc2O[C@@H]1CN(C)S(=O)(=O)c1ccc(F)cc1 | inactive: 0.897 |
| CC(=O)NCC(=O)N1CCC2(CC1)CN(c1cccnc1)C(=O)CO2 | inactive: 0.985 |
| CC1(C)NCCNC1=O | inactive: 0.97 |
| CS(=O)(=O)c1nnc(N)s1 | inactive: 1.02 |
| C[C@H](CO)N1C[C@H](C)[C@@H](CN(C)Cc2cccc3c2OCCCO3)OCc2ccccc2-c2ccccc2C1=O | inactive: 0.981 |
| C[C@@H]1CN([C@@H](C)CO)C(=O)Cc2cc(NC(=O)Nc3ccccc3)ccc2O[C@H]1CN(C)Cc1ccc(C(F)(F)F)cc1 | inactive: 1.03 |
| COc1nc(N)nc2c1ncn2[C@@H]1O[C@H](CO)[C@@H](O)[C@@H]1O | inactive: 1.01 |
| C[C@H](CO)N1C[C@H](C)[C@@H](CN(C)Cc2ccc(Oc3ccccc3)cc2)Oc2cc(-c3ccncc3)ccc2S1(=O)=O | inactive: 1.01 |

| Compound | relative growth |
| --- | --- |
| C=CCC[C@H](Cc1ccc(F)cc1)C(=O)OC[C@@H](Cc1c[nH]c2ccccc12)NC(=O)[C@H](CC=C)CC(=O)N(CCO)Cc1ccccc1 | inactive: 1.11 |
| CO[C@H]1O[C@H](CO)[C@@H](OC(=O)Nc2ccccc2)[C@@H]2OC(=O)[C@H](Cc3cccc(Br)c3)C/C=C/C[C@@H](Cc3cccc(Br)c3)C(=O)O[C@@H]12 | inactive: 0.989 |
| Cc1noc(C)c1NC(=O)Nc1ccc2c(c1)C(=O)N([C@@H](C)CO)C[C@H](C)[C@@H](CN(C)C(=O)C1CCCCC1)OCCCC[C@@H](C)O2 | inactive: 0.998 |
| NCC[C@H]1CC[C@@H](NC(=O)Cc2ccncc2)[C@@H](CO)O1 | inactive: 1 |
| C[C@@H]1CN([C@H](C)CO)C(=O)c2cc(N(C)C)ccc2O[C@@H](C)CCCCO[C@@H]1CN(C)Cc1ccc(C(=O)Nc2ccccc2N)cc1 | inactive: 0.995 |
| C[C@H](CO)N1C[C@H](C)[C@@H](CN(C)C(=O)Nc2ccc3c(c2)OCO3)OCCCC[C@H](C)Oc2ccc(NC(=O)Nc3cccc4ccccc34)cc2C1=O | inactive: 1.03 |
| C[C@H](O)[C@H](O)[C@@H](O)[C@@H](O)/C=N/NC(=O)c1ccc(C(=O)NO)cc1 | inactive: 0.998 |
| CN(C)S(=O)(=O)n1nnc2ccccc21 | inactive: 0.995 |
| O=C(c1ccccc1F)N1CCNCC1 | inactive: 0.999 |
| C[C@H]1CN([C@@H](C)CO)C(=O)Cc2cc(NS(C)(=O)=O)ccc2O[C@@H]1CN(C)S(=O)(=O)c1ccc(Cl)cc1 | inactive: 0.993 |
| O=C(C[C@@H]1C[C@@H]2c3cc(NC(=O)Nc4ccccc4)ccc3O[C@@H]2[C@H](CO)O1)NCCN1CCCCC1 | inactive: 0.99 |
| C[C@@H]1CCCCO[C@@H](CN(C)Cc2ccncc2)[C@@H](C)CN([C@H](C)CO)C(=O)c2cc(NC(=O)C3CCCCC3)ccc2O1 | inactive: 0.982 |
| C[C@H](CO)N1C[C@H](C)[C@H](CN(C)S(=O)(=O)c2ccc(Cl)cc2)Oc2ccc(NC(=O)CCN3CCOCC3)cc2C1=O | inactive: 1.01 |
| C[C@H](CO)N1C[C@H](C)[C@H](CN(C)S(=O)(=O)c2ccc(Oc3ccccc3)cc2)OCc2cn(nn2)CCCC1=O | inactive: 0.995 |
| C[C@H](CO)N1C[C@H](C)[C@@H](CN(C)S(=O)(=O)c2ccc(F)cc2)Oc2cc(C#Cc3ccc(F)cc3)ccc2S1(=O)=O | inactive: 1.03 |
| C[C@H]1CN([C@@H](C)CO)C(=O)c2cccc(NC(=O)Nc3ccc(F)cc3)c2O[C@H]1CN(C)CC1CCCCC1 | inactive: 1.01 |
| Cc1noc(C)c1NC(=O)Nc1ccc2c(c1)C(=O)N([C@@H](C)CO)C[C@@H](C)[C@H](CN(C)Cc1ccccc1)OCCCC[C@@H](C)O2 | inactive: 1.01 |
| CN(C)CCOC(C)(c1ccccc1)c1ccccn1.O=C(O)CCC(=O)O (configuration not stated) | inactive: 0.787 |
| C[C@@H]1CN([C@H](C)CO)C(=O)c2cccc(NC(=O)Nc3ccc(C(F)(F)F)cc3)c2O[C@H]1CN(C)C(=O)Nc1ccccc1 | inactive: 0.878 |
| Cc1ccc(S[C@]2(C(=O)NCc3ccccc3)CC(=O)N(Cc3cc(C(F)(F)F)cc(C(F)(F)F)c3)[C@@H]2c2ccc(CO)cc2I)cc1 | inactive: 0.987 |
